Source: the supplement of paper PMC8728848
This is one part of the list.

Legend:
Assay in all cases: glycan array binding signal (z-score within array); higher = stronger binding
Conditions in all cases: glycan notation: IUPAC condensed, linker removed
[1] = target: Neu5Ac(a2-3)Gal(b1-3)GalNAc(b1-3)Gal(b1-4)GlcNAc
Summary of the method: (§1)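 Glycan array binding is given as a within-array Z-score, which can be read as non-binding when negative. The arrays, 3228 of them, came from the Consortium for Functional Glycomics database and were retained only where the protein sequence was available. Z-scores were averaged across arrays of the same protein sequence at different concentrations or buffers and across linkers.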

[2] = target: Neu5Ac(a2-3)Gal(b1-3)GalNAc(b1-4)[Neu5Ac(a2-3)]Gal(b1-4)Glc
Summary of the method: as §1

[3] = target: Neu5Ac(a2-3)Gal(b1-3)GalNAc6S
Summary of the method: as §1

[4] = target: Neu5Ac(a2-3)Gal(b1-3)GlcNAc
Summary of the method: as §1

[5] = target: Neu5Ac(a2-3)Gal(b1-3)GlcNAc6S
Summary of the method: as §1

[6] = target: Neu5Ac(a2-3)Gal(b1-3)[Fuc(a1-4)]GlcNAc
Summary of the method: as §1

[7] = target: Neu5Ac(a2-3)Gal(b1-3)[Fuc(a1-4)]GlcNAc(b1-3)Gal(b1-4)[Fuc(a1-3)]GlcNAc
Summary of the method: as §1

[8] = target: Neu5Ac(a2-3)Gal(b1-3)[Neu5Ac(a2-3)Gal(b1-4)]GlcNAc
Summary of the method: as §1

[9] = target: Neu5Ac(a2-3)Gal(b1-3)[Neu5Ac(a2-6)]GalNAc
Summary of the method: as §1

[10] = target: Neu5Ac(a2-3)Gal(b1-4)Glc
Summary of the method: as §1

[11] = target: Neu5Ac(a2-3)Gal(b1-4)GlcNAc
Summary of the method: as §1

[12] = target: Neu5Ac(a2-3)Gal(b1-4)GlcNAc(b1-2)Man(a1-3)[Neu5Ac(a2-3)Gal(b1-4)GlcNAc(b1-2)Man(a1-6)]Man(b1-4)GlcNAc(b1-4)GlcNAc
Summary of the method: as §1

[13] = target: Neu5Ac(a2-3)Gal(b1-4)GlcNAc(b1-3)Gal(b1-4)GlcNAc
Summary of the method: as §1

[14] = target: Neu5Ac(a2-3)Gal(b1-4)GlcNAc(b1-3)Gal(b1-4)GlcNAc(b1-3)Gal(b1-4)GlcNAc
Summary of the method: as §1

[15] = target: Neu5Ac(a2-3)Gal(b1-4)GlcNAc(b1-3)Gal(b1-4)[Fuc(a1-3)]GlcNAc
Summary of the method: as §1

[16] = target: Neu5Ac(a2-3)Gal(b1-4)GlcNAc6S
Summary of the method: as §1

[17] = target: Neu5Ac(a2-3)Gal(b1-4)[Fuc(a1-3)]GlcNAc
Summary of the method: as §1

[18] = target: Neu5Ac(a2-3)Gal(b1-4)[Fuc(a1-3)]GlcNAc(b1-3)Gal
Summary of the method: as §1

[19] = target: Neu5Ac(a2-3)Gal(b1-4)[Fuc(a1-3)]GlcNAc(b1-3)Gal(b1-4)GlcNAc
Summary of the method: as §1

[20] = target: Neu5Ac(a2-3)Gal(b1-4)[Fuc(a1-3)]GlcNAc(b1-3)Gal(b1-4)[Fuc(a1-3)]GlcNAc(b1-3)Gal(b1-4)[Fuc(a1-3)]GlcNAc
Summary of the method: as §1

[21] = target: Neu5Ac(a2-3)Gal(b1-4)[Fuc(a1-3)]GlcNAc6S
Summary of the method: as §1

[22] = target: Neu5Ac(a2-3)Gal6S(b1-4)GlcNAc
Summary of the method: as §1

[23] = target: Neu5Ac(a2-3)Gal6S(b1-4)[Fuc(a1-3)]GlcNAc
Summary of the method: as §1

[24] = target: Neu5Ac(a2-3)GalNAc
Summary of the method: as §1

[25] = target: Neu5Ac(a2-3)GalNAc(b1-4)GlcNAc
Summary of the method: as §1

[26] = target: Neu5Ac(a2-3)[GalNAc(b1-4)]Gal(b1-4)Glc
Summary of the method: as §1

[27] = target: Neu5Ac(a2-3)[GalNAc(b1-4)]Gal(b1-4)GlcNAc
Summary of the method: as §1

[28] = target: Neu5Ac(a2-3)[Neu5Ac(a2-6)]GalNAc
Summary of the method: as §1

[29] = target: Neu5Ac(a2-6)Gal
Summary of the method: as §1

[30] = target: Neu5Ac(a2-6)Gal(b1-4)Glc
Summary of the method: as §1

[31] = target: Neu5Ac(a2-6)Gal(b1-4)GlcNAc
Summary of the method: as §1

[32] = target: Neu5Ac(a2-6)Gal(b1-4)GlcNAc(b1-3)Gal(b1-4)GlcNAc
Summary of the method: as §1

[33] = target: Neu5Ac(a2-6)Gal(b1-4)GlcNAc(b1-3)Gal(b1-4)[Fuc(a1-3)]GlcNAc(b1-3)Gal(b1-4)[Fuc(a1-3)]GlcNAc
Summary of the method: as §1

[34] = target: Neu5Ac(a2-6)Gal(b1-4)GlcNAc6S
Summary of the method: as §1

[35] = target: Neu5Ac(a2-6)GalNAc
Summary of the method: as §1

[36] = target: Neu5Ac(a2-6)GalNAc(b1-4)GlcNAc
Summary of the method: as §1

[37] = target: Neu5Ac(a2-8)Neu5Ac
Summary of the method: as §1

[38] = target: Neu5Ac(a2-8)Neu5Ac(a2-3)Gal(b1-4)Glc
Summary of the method: as §1

[39] = target: Neu5Ac(a2-8)Neu5Ac(a2-3)[GalNAc(b1-4)]Gal(b1-4)Glc
Summary of the method: as §1

[40] = target: Neu5Ac(a2-8)Neu5Ac(a2-8)Neu5Ac
Summary of the method: as §1

[41] = target: Neu5Ac(a2-8)Neu5Ac(a2-8)Neu5Ac(a2-3)Gal(b1-4)Glc
Summary of the method: as §1

[42] = target: Neu5Ac(a2-8)Neu5Ac(a2-8)Neu5Ac(a2-3)[GalNAc(b1-4)]Gal(b1-4)Glc
Summary of the method: as §1

[43] = target: Neu5Ac(a2-8)Neu5Ac(a2-8)Neu5Ac(a2-8)Neu5Ac(a2-3)[GalNAc(b1-4)]Gal(b1-4)Glc
Summary of the method: as §1

[44] = target: Neu5Ac(b1-6)GalNAc
Summary of the method: as §1

[45] = target: Neu5Ac(b2-6)Gal(b1-4)GlcNAc
Summary of the method: as §1

[46] = target: Neu5Ac9Ac(a2-6)Gal(b1-4)GlcNAc
Summary of the method: as §1

[47] = target: Neu5Gc(a2-3)Gal(b1-3)GlcNAc
Summary of the method: as §1

[48] = target: Neu5Gc(a2-3)Gal(b1-3)[Fuc(a1-4)]GlcNAc
Summary of the method: as §1

[49] = target: Neu5Gc(a2-3)Gal(b1-4)Glc
Summary of the method: as §1

[50] = target: Neu5Gc(a2-3)Gal(b1-4)GlcNAc
Summary of the method: as §1

[51] = target: Neu5Gc(a2-3)Gal(b1-4)[Fuc(a1-3)]GlcNAc
Summary of the method: as §1

[52] = target: Neu5Gc(a2-6)Gal(b1-4)GlcNAc
Summary of the method: as §1

[53] = target: Neu5Gc(a2-6)GalNAc
Summary of the method: as §1

Measured: glycan array binding signal (z-score)

B1: PA-IL (Pseudomonas aeruginosa) (protein)
chain: AWKGEVLANNEAGQVTSIIYNPGDVITIVAAGWASYGPTQKWGPQGDREHPDQGLICHDAFCGALVMKIGNSGTIPVNTGLFRWVAPNNVQGAITLIYNDVPGTYGNNSGSFSVNIGKDQS
-0.363: [50]
-0.365: [1] | [2] | [3] | [4] | [5] | [6] | [8] | [9] | [10] | [11] | [13] | [14] | [15] | [16] | [18] | [19] | [20] | [21] | [22] | [23] | [24] | [25] | [27] | [28] | [29] | [30] | [31] | [32] | [33] | [34] | [35] | [36] | [37] | [39] | [40] | [41] | [42] | [43] | [44] | [45] | [46] | [47] | [48] | [51] | [52] | [53]
-0.362: [38]
-0.364: [7] | [12] | [17] | [26] | [49]
